The record followed here is patent US20170307628A1 (EIDGENOESSISCHE TECHNISCHE HOCHSCHULE ZURICH, published 2017).

For one test, the target named is T1, human serum albumin (human, UniProt P02768).
T1 construct: also called HSA
Kind of test: lysate ELISA. On the technique in general: ELISA stands for enzyme-linked immunosorbent assay.

The next test has as its target T2, mouse serum albumin (mouse, UniProt P07724 25-608).
T2 construct: also called MSA
As to the kind of experiment: lysate ELISA and/or Biacore.

Sequence of mouse serum albumin (P07724 25-608 limits assumed): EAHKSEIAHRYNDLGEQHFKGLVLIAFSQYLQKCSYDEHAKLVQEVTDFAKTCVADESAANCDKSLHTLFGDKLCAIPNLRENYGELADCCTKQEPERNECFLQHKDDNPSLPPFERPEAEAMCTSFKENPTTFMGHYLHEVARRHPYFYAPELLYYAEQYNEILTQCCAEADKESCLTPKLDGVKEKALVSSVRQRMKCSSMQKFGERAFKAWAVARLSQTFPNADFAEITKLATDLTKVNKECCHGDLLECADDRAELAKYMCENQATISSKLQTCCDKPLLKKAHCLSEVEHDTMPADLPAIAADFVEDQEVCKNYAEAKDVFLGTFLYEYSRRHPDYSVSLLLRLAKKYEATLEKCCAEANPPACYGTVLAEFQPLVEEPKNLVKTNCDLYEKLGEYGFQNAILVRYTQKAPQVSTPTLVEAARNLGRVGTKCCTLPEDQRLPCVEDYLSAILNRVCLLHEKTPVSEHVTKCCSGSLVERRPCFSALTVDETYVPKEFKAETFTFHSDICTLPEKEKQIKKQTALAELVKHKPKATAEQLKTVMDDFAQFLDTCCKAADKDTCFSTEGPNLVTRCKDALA

B1: SEQ ID NO 375 (designed binder)
chain: GVTLFVALYDYQSRHGFDLSFHKGEKFQILDAMLRFGDWWEARSLTTGETGYIPSNYVAPVDSI
notes: myc-His tagged
Take B1: the binding result with human serum albumin is “binds”.

B2: SEQ ID NO 342 (designed binder)
chain: GVTLFVALYDYVSNTGFDLSFHKGEKFQILQNLWTGDWWEARSLTTGETGYIPSNYVAPVDSIQ
notes: myc-His tagged
B2: the binding result with human serum albumin and in the test with mouse serum albumin was “binds” throughout.

B3: SEQ ID NO 343 (designed binder)
chain: GVTLFVALYDYTASYGYDLSFHKGEKFQILDDIWTGDWWEARSLTTGETGYIPSNYVAPVDSIQ
notes: myc-His tagged
As to B3, the binding result with human serum albumin and in the test with mouse serum albumin was “binds” each time.

B4: SEQ ID NO 371 (designed binder)
chain: GVTLFVALYDYQSRHGFDLSFHKGEKFQILDNLRFGDWWEARSLTTGETGYIPSNYVAPVDSIQ
notes: myc-His tagged
As for B4, in the test with human serum albumin, the binding result was “binds”.

B5: SEQ ID NO 370 (designed binder)
chain: GVTLFVALYDYQSREKFDLSFHKGEKFQILDQLRFGDWWEARSLTTGETGYIPSNYVAPVDSIQ
notes: myc-His tagged
B5: in the test with human serum albumin, the binding result is on record as “binds”.

B6: SEQ ID NO 373 (designed binder)
chain: GVTLFVALYDYQSRHGFDLSFHKGEKFQILDWLRFGDWWEARSLTTGETGYIPSNYVAPVDSIQ
notes: myc-His tagged
On to B6, for which the binding result in the test with human serum albumin is reported as “binds”.

B7: SEQ ID NO 372 (designed binder)
chain: GVTLFVALYDYHAHLGYDLSFHKGEKFQILDDLRFGDWWEARSLTTGETGYIPSNYVAPVDSIQ
notes: myc-His tagged
With B7, in the test with human serum albumin, the binding result is “binds”.

B8: SEQ ID NO 348 (designed binder)
chain: GVTLFVALYDYQSRHGFDLSFHKGEKFQILQNLWTGKWWEARSLTTGETGYIPSNYVAPVDSIQ
notes: myc-His tagged
Turning to B8, the binding result in the test with human serum albumin and with mouse serum albumin was “binds” each time.

B9: SEQ ID NO 347 (designed binder)
chain: GVTLFVALYDYQSRHGFDLSFHKGEKFQILQNLWTGSWWEARSLTTGETGYIPSNYVAPVDSIQ
notes: myc-His tagged
For B9, the binding result with human serum albumin and with mouse serum albumin was “binds” each time.

B10: SEQ ID NO 376 (designed binder)
chain: GVTLFVALYDYHAHLGYDLSFHKGEKFQILDSLRFGDWWEARSLTTGETGYIPSNYVAPVDSIQ
notes: myc-His tagged
On to B10, for which the binding result with human serum albumin is “binds”.

B11: SEQ ID NO 344 (designed binder)
chain: GVTLFVALYDYLRRNSPDLSFHKGEKFQILQNLWTGDWWEARSLTTGETGYIPSNYVAPVDSIQ
notes: myc-His tagged
Regarding B11, the binding result with human serum albumin and with mouse serum albumin was “binds” throughout.

B12: SEQ ID NO 345 (designed binder)
chain: GVTLFVALYDYHAHLGYDLSFHKGEKFQILQDLWTGALWRARSLTTGRMGSIPSNYVAPVDSIQ
notes: myc-His tagged
As for B12, the binding result with human serum albumin and with mouse serum albumin was “binds” each time.

B13: SEQ ID NO 374 (designed binder)
chain: GVTLFVALYDYQSRHGFDLSFHKGEKFQILDAIRFGDRWEARSLTTGETGYIPSNYVAPVDSIQ
notes: myc-His tagged
B13: in the test with human serum albumin, the binding result is on record as “binds”.

B14: SEQ ID NO 346 (designed binder)
chain: GVTLFVALYDYQSRHGFDLSFHKGEKFQILQNLWTGEWWEARSLTTGETGYIPSNYVAPVDSIQ
notes: myc-His tagged
For B14, the binding result with human serum albumin and with mouse serum albumin was “binds” each time.

B15: SEQ ID NO 349 (designed binder)
chain: GVTLFVALYDYEKQHAWDLSFHKGEKFQILQNLWTGDWWEARSLTTGETGYIPSNYVAPVDSIQ
notes: myc-His tagged
In the case of B15, the binding result with human serum albumin and in the test with mouse serum albumin was “binds” in each case.

B16: SEQ ID NO 369 (designed binder)
chain: GVTLFVALYDYTARTGYDLSFHKGEKFQILDAVRFGDWWEARSLTTGETGYIPSNYVAPVDSIQ
notes: myc-His tagged
Consider B16, for which, in the test with human serum albumin, the binding result was “binds”.
